# Results from the supplement of paper PMC10126150.
# Sequences with one replicate were seen in a single cluster, so their values are uncertain.
# System: ATP
# Assay: switch fluorescence ratio, 500 uM ATP over buffer (Cy3 cluster intensity, sum of 5 cycles each) (fold (ratio)); higher = stronger signal-on switching upon ATP binding; sequences stand for … in TCGTCGGCAGCGTCAGATGTGTATAAGAGACAGTTTTTTTTTTTTTTTTTTTTTTTTT…TC
# Conditions: aptamer strand: ATP DNA aptamer (quencher-CACCTGGGGGAGTATTGCGGAGGAAGG + anchor), 100 nM annealed; ATP concentration: 500 uM; one replicate
# In short: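 Per cluster, summed Cy3 intensity from the target cycles was divided by that from the buffer cycles to give the fluorescence ratio, then averaged per switch-domain sequence. Clusters outside 100-1000 RFU were excluded. The Cy3-labelled switching-strand clusters, on a modified Illumina MiSeq flow-cell, were annealed to 100 nM quencher-labelled ATP aptamer and imaged in selection buffer, then after 15 min with 500 uM ATP at 22 °C, for five cycles with NaOH stripping and re-annealing between them.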
# 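Note: ATP exposure 15 min at 22 °C before imaging.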
row,Sequence,switch fluorescence ratio
1,GGATAGATTT,0.976
2,TAAAGCATGC,1.07
3,GCGCGACTGG,1.03
4,GCACTGGGCA,0.952
5,ATGTTCTTTC,0.989
6,TCGACGTACT,1.56
7,GGACGTTTGA,1.04
8,AGCCTAAGCG,0.962
9,TACGTCGCAT,1.46
10,CATGCCAGCT,0.966
11,AGCGGACTTA,0.966
12,ATCACTCCAT,1.07
13,ACGAGGATG,0.996
14,TGTACATGTC,1.05
15,CGATAGAAAT,1.01
16,GGAAACCTCG,1.22
17,GAAGCCCCCG,2.15
18,GGGGTCCCAC,1.07
19,AGTGCGAACA,0.976
20,GAGATGCGC,0.996
21,AGTTTTAGGG,1
22,AGCGATGTGT,0.98
23,GGAACCGAAC,1.94
24,GACTTTTTAA,1.03
25,CCAGGACTTA,1.02

row,Sequence,switch fluorescence ratio
1,CCGTGCCGGG,0.996
2,CGTGTACAAC,1
3,AACGCGGTTG,1.02
4,AAAATTACCT,1.61
5,GTACGCCAGG,1.32
6,TGCAGAAATA,1.02
7,ATGTATTGAC,1.04
8,AACGGAGATA,0.965
9,TAGATCTGTT,0.98
10,GCAGACGTCT,1.19
11,CGCGGCAAAT,1.56
12,GGGACCTAGT,1.03
13,GTTGATTGGA,1.02
14,GGTCTTAGAG,0.958
15,GTGTCAATCT,1.02
16,CATATCGAGT,0.998
17,ACCGGATTTC,1.1
18,TTCCATGTTA,1.09
19,TCACAGTACA,1.4
20,GGACAGCCCC,1.03
21,TCCAGTGACC,1.03
22,AATGTCTCTG,1.03
23,AAAAATTGAA,0.976
24,ATCTGATATA,0.976
25,TCGCCATGG,1.05

row,Sequence,switch fluorescence ratio
1,AAACCATGGA,0.99
2,TGACAGAGGT,0.971
3,ATCTGCGTGC,1.13
4,AAGGAAGTAT,1.03
5,ACATGGGCCA,1.04
6,GTCCTTTACG,0.983
7,AACGGATTGG,0.955
8,CTTAGTTTAG,0.949
9,ATATACCATA,1.06
10,AGGTGGACT,1.03
11,TCACTTTATA,1.08
12,CGTCTAATCC,1.1
13,ATATCCTCTC,1.04
14,ATAAGGGCCG,0.934
15,CAGCTTTGGT,1.01
16,AGACATAAGT,1.01
17,ACGTCATGC,1.4
18,TATACCTGGG,1.02
19,TATGCTCCAG,1.06
20,ATCGAATGGA,1.11
21,ACAATTTACA,1.11
22,CTACCGGTT,0.958
23,AGCAATTATC,4.13
24,TAAGCGTCAG,1.02
25,GTAGAAGAGT,0.987

row,Sequence,switch fluorescence ratio
1,CAAATCGATT,0.938
2,GCAGACATTG,1.01
3,TTAAGTTAAC,1.13
4,TATTAGACG,1.03
5,TGGGTCCCTG,1.05
6,ACATAATAGC,1.01
7,GATCCCGAGC,1.02
8,GTGGGAAACG,1.04
9,TCCATTGGGA,1.02
10,CGATCAGTGT,0.975
11,GTGGGAGCTC,0.946
12,AAACTATCCA,1.03
13,TCCCTTAAGG,0.986
14,CGCATAAGTT,1.38
15,GATTGACCTC,0.949
16,TAGGAACTTG,1.02
17,GTTTCCCTTT,1.03
18,CTATAGGTGG,1.67
19,GTGGGATA,0.99
20,GTTAAACAAA,1.04
21,TATGGCATCA,1.03
22,CAGTAGGTAA,0.962
23,CAATAAGTA,1.01
24,AGTTAATGGG,0.993
25,ATAAAAAGA,0.967
